Tested on: Candida albicans
Assay: In vitro fungicidal activity vs. Candida albicans
Details: growth-negative samples after 24 hr incubation, subcultured

## O=C(O)CCCCCCC/C=C\C#CC#Cc1ccco1 [Compound III″]
  reduction of the original inoculum: greater than 99.9%

Source: patent US8722910B2, “Diyne compositions” (Evolva AG, priority 2009, dated 2014)
